We go through 125 sequences from PMC12135187, “A role for pH dynamics regulating transcription factor DNA-binding selectivity”.

The list shows a part of the results.

The target in the assay is T1, FOXC2 DBD WT (UniProt Q99958 72-172).
T1 sequence: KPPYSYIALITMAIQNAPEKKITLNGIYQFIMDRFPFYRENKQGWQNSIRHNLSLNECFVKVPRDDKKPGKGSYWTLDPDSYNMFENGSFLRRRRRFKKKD
Description: SELEX-seq (GST pull-down, four rounds, 16-nt random library); pH 7.0; 20 mM HEPES, 140 mM KCl, 0.05 mM TCEP-HCl, pH 7.0, room temperature, 30 min; 2.5 uM GST-FOXC2 DBD, 0.25 uM DNA library; high values mean tight binding. The note with it: protein: recombinant; tags: N-terminal GST (pGEX-6P-2); dsDNA, one strand shown. The method, boiled down:
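GST-tagged FOXC2 DNA-binding domain (E. coli-expressed, glutathione-purified) was incubated with a DNA library carrying a 16 bp randomized region, at 0.25 μM DNA and 2.5 μM protein, for 30 min at RT in 20 mM HEPES, 140 mM KCl, 0.05 mM TCEP–HCl, pH 7. Complexes were captured on glutathione Sepharose beads, washed, heat-eluted and PCR-amplified over four rounds. Initial and selected libraries were Illumina MiniSeq sequenced. Relative enrichment came from the Bioconductor SELEX R package.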
CATCCA: the binding signal was determined as 0.528 relative enrichment.

For ACTGTG, the binding signal was 0.322 relative enrichment.

With CAATGG, the binding signal was 0.433 relative enrichment.

As to AAGCAT, the binding signal came to 0.54 relative enrichment.

As for AAACTC, the binding signal was found to be 0.421 relative enrichment.

For AAACCG, the binding signal came to 0.336 relative enrichment.

Turning to AAACTG, the binding signal is 0.284 relative enrichment.

On to ACCATG, for which the binding signal stood at 0.559 relative enrichment.

On to ATGCAC, for which the binding signal was determined as 0.484 relative enrichment.

As for GCATCA, the binding signal worked out at 0.615 relative enrichment.

Take AAGATA: the binding signal is 0.3 relative enrichment.

Regarding CAGATG, the binding signal is 0.493 relative enrichment.

ATTTAC: the binding signal turned out to be 0.56 relative enrichment.

As to AATCCT, the binding signal was found to be 0.389 relative enrichment.

Consider ACCTCT, for which the binding signal was found to be 0.569 relative enrichment.

Take AACTCA: the binding signal was 0.249 relative enrichment.

As to CACATC, the binding signal is 0.388 relative enrichment.

Take AATGAT: the binding signal was 0.314 relative enrichment.

In the case of AATCTA, the binding signal worked out at 0.278 relative enrichment.

With ACTTGC, the binding signal was 0.489 relative enrichment.

On to AACAGG, for which the binding signal came out at 0.325 relative enrichment.

As for ACAAGT, the binding signal came to 0.28 relative enrichment.

Turning to AAAAGC, the binding signal amounted to 0.326 relative enrichment.

Consider AAAGTC, for which the binding signal was 0.388 relative enrichment.

CAATAC: the binding signal is 0.266 relative enrichment.

Turning to GTTCAA, the binding signal is 0.292 relative enrichment.

Take TCCATT: the binding signal turned out to be 0.339 relative enrichment.

In the case of CCGAAT, the binding signal is 0.621 relative enrichment.

Turning to TACTCT, the binding signal came to 0.496 relative enrichment.

For the sequence GATAAA, the binding signal stood at 0.326 relative enrichment.

As for CAAGTC, the binding signal turned out to be 0.459 relative enrichment.

Turning to CACCAC, the binding signal is 0.647 relative enrichment.

Turning to AATAAT, the binding signal was 0.309 relative enrichment.

ATAACA: the binding signal turned out to be 0.316 relative enrichment.

In the case of CCTAAA, the binding signal came out at 0.34 relative enrichment.

Regarding ACAATC, the binding signal was 0.437 relative enrichment.

Regarding ATAATG, the binding signal is 0.3 relative enrichment.

In the case of CGCATA, the binding signal amounted to 0.349 relative enrichment.

As to GAATCT, the binding signal was determined as 0.615 relative enrichment.

Consider CTTTTA, for which the binding signal amounted to 0.288 relative enrichment.

Turning to AATTAC, the binding signal came out at 0.323 relative enrichment.

As for AAAAAA, the binding signal came to 0.226 relative enrichment.

ACTGCT: the binding signal amounted to 0.412 relative enrichment.

For CACAGC, the binding signal amounted to 0.323 relative enrichment.

For CACTCA, the binding signal worked out at 0.422 relative enrichment.

Regarding TTCCAC, the binding signal came out at 0.502 relative enrichment.

On to ACACTC, for which the binding signal was determined as 0.42 relative enrichment.

Turning to AGTTTC, the binding signal amounted to 0.336 relative enrichment.

AGCCAA: the binding signal was 0.304 relative enrichment.

As for ACCTAT, the binding signal amounted to 0.392 relative enrichment.

Take ATAGAT: the binding signal came to 0.461 relative enrichment.

As to CACACT, the binding signal was 0.351 relative enrichment.

Turning to CATTTC, the binding signal was 0.414 relative enrichment.

For TATGCA, the binding signal turned out to be 0.394 relative enrichment.

Regarding AGTGTA, the binding signal stood at 0.391 relative enrichment.

Regarding AGATCA, the binding signal stood at 0.547 relative enrichment.

Consider CTTCGT, for which the binding signal was found to be 0.674 relative enrichment.

As to TCTTCT, the binding signal worked out at 0.66 relative enrichment.

AGGTAT: the binding signal turned out to be 0.39 relative enrichment.

On to TAGCTA, for which the binding signal came to 0.422 relative enrichment.

For the sequence TCGAAA, the binding signal is 0.41 relative enrichment.

CTCTTC: the binding signal was determined as 0.799 relative enrichment.

Turning to CGCTTA, the binding signal stood at 0.418 relative enrichment.

Turning to TTTCAC, the binding signal was 0.296 relative enrichment.

With AAAGTG, the binding signal was determined as 0.343 relative enrichment.

Turning to ACTTCC, the binding signal was determined as 0.677 relative enrichment.

Turning to CATCGT, the binding signal came to 0.553 relative enrichment.

Take CTTGTA: the binding signal stood at 0.305 relative enrichment.

In the case of ACCAAC, the binding signal is 0.436 relative enrichment.

For TACGAA, the binding signal was determined as 0.468 relative enrichment.

For GAATAA, the binding signal was determined as 0.462 relative enrichment.

Regarding AACCAT, the binding signal worked out at 0.316 relative enrichment.

With TAAATA, the binding signal was 0.726 relative enrichment.

Regarding TAATTA, the binding signal turned out to be 0.207 relative enrichment.

Regarding TGTTAA, the binding signal was 0.314 relative enrichment.

For TAACTC, the binding signal came out at 0.337 relative enrichment.

With CCATTA, the binding signal stood at 0.286 relative enrichment.

In the case of CCTATC, the binding signal is 0.464 relative enrichment.

Take GGCTTA: the binding signal was 0.426 relative enrichment.

On to CAGACT, for which the binding signal came out at 0.612 relative enrichment.

For GACATA, the binding signal stood at 0.269 relative enrichment.

In the case of AGAAAC, the binding signal came to 0.36 relative enrichment.

Turning to ACACGC, the binding signal worked out at 0.52 relative enrichment.

On to AATATC, for which the binding signal turned out to be 0.251 relative enrichment.

With ATATTA, the binding signal amounted to 0.266 relative enrichment.

For AAGCAG, the binding signal was determined as 0.486 relative enrichment.

As for AACGAC, the binding signal amounted to 0.316 relative enrichment.

With AATCAT, the binding signal amounted to 0.403 relative enrichment.

As to TTTCCC, the binding signal was 0.38 relative enrichment.

Regarding TAATCA, the binding signal was found to be 0.555 relative enrichment.

In the case of TGTCTG, the binding signal was determined as 0.336 relative enrichment.

In the case of AAATCG, the binding signal worked out at 0.285 relative enrichment.

Consider TTAGAA, for which the binding signal amounted to 0.333 relative enrichment.

For the sequence GAGTAA, the binding signal was found to be 0.439 relative enrichment.

Regarding AACTTA, the binding signal worked out at 0.218 relative enrichment.

With CAATCG, the binding signal was determined as 0.373 relative enrichment.

On to ACATCA, for which the binding signal was 0.347 relative enrichment.

On to ATTCTG, for which the binding signal was 0.359 relative enrichment.

Turning to CAAGAC, the binding signal was 0.425 relative enrichment.

With CTCCTT, the binding signal was determined as 0.419 relative enrichment.

With GCCTAT, the binding signal stood at 0.388 relative enrichment.

For ACACCT, the binding signal was 0.397 relative enrichment.

As for TACTTC, the binding signal came out at 0.678 relative enrichment.

In the case of ACGATA, the binding signal was determined as 0.322 relative enrichment.

On to ACGTAT, for which the binding signal stood at 0.307 relative enrichment.

With GTAATA, the binding signal came out at 0.366 relative enrichment.

Take ACGCAT: the binding signal amounted to 0.439 relative enrichment.

Take ATGTCA: the binding signal turned out to be 0.303 relative enrichment.

As for CATAAC, the binding signal was 0.226 relative enrichment.

For CCACTG, the binding signal stood at 0.649 relative enrichment.

In the case of ACACCA, the binding signal came to 0.401 relative enrichment.

For AACCTT, the binding signal came to 0.295 relative enrichment.

Regarding TGTAAA, the binding signal worked out at 0.331 relative enrichment.

For TTGCTC, the binding signal was 0.362 relative enrichment.

With AAACAC, the binding signal worked out at 0.411 relative enrichment.

As for AACAAT, the binding signal is 0.374 relative enrichment.

On to CGAATA, for which the binding signal amounted to 0.455 relative enrichment.

Regarding AACAAG, the binding signal was 0.445 relative enrichment.

In the case of CAAAAG, the binding signal was found to be 0.294 relative enrichment.

Regarding CCCAAT, the binding signal worked out at 0.348 relative enrichment.

Consider AGTTAC, for which the binding signal is 0.363 relative enrichment.

With AACAAA, the binding signal amounted to 0.337 relative enrichment.

As for TACCTA, the binding signal came to 0.442 relative enrichment.

On to ATCTGA, for which the binding signal amounted to 0.44 relative enrichment.

As for CAATGA, the binding signal came out at 0.356 relative enrichment.
